Measurements as given in PubChem BioAssay AID485281 (National Center for Advancing Translational Sciences (NCATS), 2010).
The campaign covered roughly 350,000 compounds. About 260 (0.074%) were called active. The shares of active, inactive and inconclusive entries below differ from those in the screen. Calls follow the shape of the dose curve; as a rule, active = well fitted inhibition curve with a large enough effect; inconclusive = small, poorly fitted or top-dose-only effect; inactive = no such curve, though single readings can be large or run the other way. Where the call is inconclusive, the potency comes from a doubtful curve fit.

These compounds were tested against Ferritin light chain (Equus caballus) (UniProt P02791) (assay: qHTS Assay for Identification of Novel General Anesthetics). Settings: apoferritin/1-aminoanthracene competitive binding, fluorescence; activity change, negative = displacement: at 77.5 µM (top of the series).
UniProt P02791, sequence (P02791 whole entry, looked up): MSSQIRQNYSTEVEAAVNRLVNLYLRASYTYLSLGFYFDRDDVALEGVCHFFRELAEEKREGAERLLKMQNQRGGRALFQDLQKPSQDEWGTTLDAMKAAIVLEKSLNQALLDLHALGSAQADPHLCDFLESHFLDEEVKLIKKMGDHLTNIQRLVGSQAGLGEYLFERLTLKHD
Outline: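 Concentration-response curves derived by four-parameter Hill fitting of normalized fluorescence, where compounds displaced 1-AMA from 10 uM horse apoferritin following a brief 10 min room-temperature incubation; propofol titration acted as positive control.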
% is scaled to controls: 0 for no effect and ±100 for the full control effect; potency is read from the fitted curve at half-maximal effect; tags tell the direction and shape of the fitted curve.
Also: nearly all actives have a fitted effect of over 20% in size.

Activity change, negative = displacement, inactive:
COC(=O)C1=C[C@@H](C(=O)OC)C2C3=C(C(=O)[C@]2(C)NC(=O)c2ccccc2)[C@H](C)[C@@H]2C(=O)N(C)C(=O)[C@@H]2[C@@H]3C1 (some centres not stated) -0.483%
Cc1ccc(Nc2nc(N)nc(CSC(=S)N3CCOCC3)n2)cc1 -13.2%
CC(Nc1nc(-c2ccccc2O)nc2ccccc12)c1ccccc1 (configuration not stated) 5.57%
CCC(=O)NNc1ncnc2c1cnn2C -1.9%
C/C=C1\COC(C(=O)NCc2ccccc2)(C(F)(F)F)C=C1C=C1CCCCC1 (configuration not stated) -20.8%
Cc1cc2c(c(C)c1Cl)C(c1ccc3c(c1)OCO3)CC(O)(c1ccccc1)O2 (configuration not stated) -1.51%
N[C@H](C(=O)O)C1C(C(=O)O)C1C(=O)O (some centres not stated) 3.33%
COc1ccc(-c2nc(NC(=O)C3CC(=O)N(c4ccc5c(c4)OCCO5)C3)sc2C)cc1 (configuration not stated) -19.4%
O=C(O)CSc1cc(NS(=O)(=O)c2cccc([N+](=O)[O-])c2)c2ccccc2c1O -0.725%
COc1ccccc1Nc1ncc2c(n1)CCN(CC(C)C)C2 11.3%
c1ccc(OCCOCCN2CCc3ccccc3C2)cc1 8.24%
COc1ccc(OC)c(NC(=O)Nc2cccc(OCc3cc(=O)n4cc(C)ccc4n3)c2)c1 -3.22%
N#Cc1nc(-c2ccc(OCc3ccccc3)cc2)oc1NCc1cccnc1 -1.94%
O=c1c(-c2ccccc2)coc2c(CN3CCCC3)c(O)ccc12 70.2%
O=[N+]([O-])c1ccc(N2CCN(CCO)CC2)cc1Sc1ccccn1 -17.4%
COc1ccc(NC(=O)CSCC(=O)NC2(C)CCS(=O)(=O)C2)cc1 (configuration not stated) 0.376%
O=C(Cn1nnc(-c2ccccc2)n1)N/N=C/c1cc([N+](=O)[O-])ccc1O -9.71%

Potency, inconclusive:
Cc1ccc(C)c(C(=O)COC(=O)c2ccccc2N2C(=O)C3C4CCC(C4)C3C2=O)c1 (configuration not stated) 3.55 µM [inhibitor, partial curve]
COc1cc(CNCc2ccccn2)ccc1OCc1ccc(Cl)c(Cl)c1 20 µM [inhibitor, partial curve]
CC(=O)c1cccc(NC(=O)CSCc2ccc(Br)cc2)c1 50.1 µM [inhibitor, single point]
Cc1ccc(NC(=O)COc2cccc3ccc(C)nc23)c(Br)c1 39.8 µM [inhibitor, single point]
Cc1cc(NCC2CCCCC2)nc2ccccc12 28.2 µM [inhibitor, single point]
O=C(NNS(=O)(=O)c1ccc(Br)cc1)C1CCCCC1 35.5 µM [inhibitor, partial curve]
Cc1cccc(COCC(CC(C)C)N2CCN(C(=O)c3ccc(C(F)(F)F)cc3)CCC2=O)c1 (configuration not stated) 14.1 µM [inhibitor, partial curve]
CC(C)(Cc1ccc(O)cc1)NC(=O)CC(=O)N/N=C/c1ccc(Cl)cc1 28.2 µM [inhibitor, partial curve]
CC(NC(=O)COC(=O)CCNC(=O)c1ccco1)C12CC3CC(CC(C3)C1)C2 (configuration not stated) 28.2 µM [inhibitor, partial curve]
O=C(CCn1c(=O)c2cccn2c2ccc(F)cc21)NCCc1ccc(Cl)cc1 0.794 µM [inhibitor, partial curve, poor fit]
CC(C)Cn1c(N)c(C(=O)COC(=O)c2cccc(F)c2)c(=O)n(C)c1=O 28.2 µM [inhibitor, single point]
O=S(=O)(NC1CCCCC1)c1ccc(-c2csnn2)s1 28.2 µM [inhibitor, partial curve]
Nc1cccc(CCc2ccncc2)c1 31.6 µM [inhibitor, single point]
COC(=O)c1ccccc1NC(=O)CSc1cc(-c2ccccc2)nc(C)n1 3.98 µM [inhibitor, full curve]
CCc1ccc(C(=O)COC(=O)C(CCSC)NC(=O)c2ccccc2)cc1 (configuration not stated) 11.2 µM [inhibitor, partial curve]
Cc1ccc(CNc2nc(Cl)c(C#N)s2)cc1 5.62 µM [inhibitor, full curve]
O=C(O)C1C2C=CC(C2)C1C(=O)NCc1ccc(Cl)c(Cl)c1 (configuration not stated) 44.7 µM [inhibitor, partial curve]
CN=c1scc(-c2c[nH]c3ccccc23)n1C 25.1 µM [inhibitor, partial curve]
O=C(CSCc1ccccc1)N/N=C/c1ccc(OCC(=O)N2CCCCC2)cc1 44.7 µM [inhibitor, partial curve]
O=S(=O)(c1ccc2ccccc2c1)n1cnc2ccccc21 28.2 µM [inhibitor, partial curve]
O=C(Cc1ccc2c(c1)CCCC2)Nc1ccccc1Cl 28.2 µM [inhibitor, partial curve]
COc1cc(C(C[N+](=O)[O-])c2c(-c3ccccc3)cc3ccccn23)cc(OC)c1OC (configuration not stated) 0.794 µM [inhibitor, full curve, poor fit]
Cc1ccnc(SCC(=O)Nc2sc3c(c2C#N)CCCC3)n1 17.8 µM [inhibitor, partial curve]
O=C(CCCn1c(=S)[nH]c2cc3c(cc2c1=O)OCO3)N1CCN(C2CCCCC2)CC1 20 µM [inhibitor, partial curve]
O=C(OCC(=O)N1CCc2ccccc21)c1nc(Cl)ccc1Cl 17.8 µM [inhibitor, partial curve]
Cc1ccc(NC(=O)CCc2nnc3ccc(NCc4ccco4)nn23)cc1 35.5 µM [inhibitor, partial curve]
Cc1ncsc1CCOC(=O)c1ccccc1 25.1 µM [inhibitor, partial curve]
CCc1nnc(NC(=O)C2Cc3ccccc3CN2S(=O)(=O)c2ccc(C)cc2)s1 (configuration not stated) 7.94 µM [inhibitor, full curve, poor fit]
Nc1nnc(-c2cccc([N+](=O)[O-])c2)s1 44.7 µM [inhibitor, single point]
NCCCCCc1nnc(SCc2ccc(Cl)cc2Cl)o1 28.2 µM [inhibitor, partial curve]
Cn1cc(CNCc2ccc(OC(F)(F)F)cc2)c(-c2ccc3c(c2)OCCO3)n1 35.5 µM [inhibitor, single point]
CCC(C)(C)NC(=O)C(c1ccccc1F)N(Cc1ccco1)C(=O)Cn1nnc2ccccc21 (configuration not stated) 25.1 µM [inhibitor, partial curve]
O=C1C2=C(Nc3ccccc3SC2c2ccc(C(F)(F)F)cc2)c2ccccc21 (configuration not stated) 7.08 µM [inhibitor, partial curve]
CC(C)N(C(=O)c1ccc(-c2ccccc2F)cc1)C(C)C 28.2 µM [inhibitor, single point]
N#CC1=C(N)NC(SCc2ccc(Cl)cc2)=C(C#N)C12CCCCC2 44.7 µM [inhibitor, partial curve]
COc1cccc(/C=N/NC(=O)N/N=C/c2cccc(OC)c2O)c1O 7.94 µM [inhibitor, full curve]
O=C(CCc1nnc(CCCCc2ccccc2)o1)NC1CCCC1 39.8 µM [inhibitor, partial curve]
C=CCN(CC=C)C(=S)NC(=O)c1ccc(-c2ccccc2)cc1 50.1 µM [inhibitor, partial curve]
CC(C)CNC(=O)NC(=O)CSc1nc2ccccc2n1CC(C)C 22.4 µM [inhibitor, partial curve]
Cc1ccc(N2CCN(c3ncnc4onc(-c5ccc(F)cc5)c34)CC2)c(C)c1 8.91 µM [inhibitor, single point]
Cc1ccc(S(=O)(=O)NCCc2nnc3ccc(SCc4cccc(F)c4)nn23)cc1 31.6 µM [inhibitor, partial curve]
COc1cccc(-c2cnc(NCc3cc(Cl)ccc3O)n2C)c1 17.8 µM [inhibitor, partial curve]
NS(=O)(=O)c1ccc(-n2nncc2C23CC4CC(CC(C4)C2)C3)cc1 31.6 µM [inhibitor, partial curve]
CCC(=O)N/N=C(\C)CC(=O)Nc1ccc2ccccc2c1 11.2 µM [inhibitor, partial curve, poor fit]
Cc1ccc(OCCSc2nc(-c3cccs3)nc3cc(=O)[nH]n23)cc1Cl 2.51 µM [inhibitor, full curve]
O=C(Cc1c(F)cccc1Cl)Nc1ccc(S(=O)(=O)N2CCCC2)cc1 17.8 µM [inhibitor, partial curve]
Cc1cc(C)cc(NC(=O)C2CCCC2)c1 15.8 µM [inhibitor, partial curve]
NS(=O)(=O)c1cc(C(=O)N=Nc2c(O)[nH]c3ccccc23)ccc1Cl 44.7 µM [inhibitor, partial curve]
Cc1ccccc1OCC(=O)N1CCc2ccccc2C1 22.4 µM [inhibitor, partial curve]
Cc1ccccc1CN1C(=O)c2ccccc2Sc2ccc(C(=O)N3CCOCC3)cc21 22.4 µM [inhibitor, single point]
